Structures are written as SMILES. The campaign covered roughly 44,000 compounds. About 340 (0.77%) were called active. Inconclusive results (about 5%) are left out. Calls follow the shape of the dose curve; as a rule, active = well fitted inhibition curve with a large enough effect; inconclusive = small, poorly fitted or top-dose-only effect; inactive = flat fitted curve, though single readings scatter. This is one part of the list.
Potency is read from the fitted curve at half-maximal effect.

A short description of this assay: Acumen qHTS Assay for Inhibitors of the mTORC1 Signaling Pathway in MEF (Tsc2-/-, p53-/-) Cells: Sytravon. Also: nearly all actives have a fitted effect of over 50% in size.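 As to activity change, negative = inhibition: plate controls were DMSO for no effect and rapamycin for full effect.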 The conditions noted are these: phospho-rpS6 immunofluorescence/PI, 24 h; series mostly up to 38.3 µM; activity change, negative = inhibition: at the top concentration. The gist of the method:
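Cell-based qHTS: Tsc2-/- p53-/- MEF, 24 h cpd, 37 °C; fix/perm, anti-phospho-S6 Alexa-488 + PI; Acumen 488 nm scan; pS6/PI ratio, % positive cells; rapamycin 7.5 nM = inhibition ref; PI count = viability.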
Regarding `Cc1ccc(C)c(NC(=O)CSc2nnc(-c3cc4occc4n3C)n2-c2ccccc2C)c1`, the “activity change, negative = inhibition” value is inactive: -0.506%.
Turning to `CC(C)CC(=O)Nc1ccccc1OCc1cc(=O)n2ccccc2n1`, the “activity change, negative = inhibition” value was inactive: -11.8%.
Same read-out and setting: in the case of `CC(=O)N1CCc2c(sc3c2c(=O)n(-c2cc(Cl)ccc2C)c(=O)n3Cc2ccccc2F)C1` it was inactive: 0.201%.
Still for that read-out and setting: in the case of `CC1(C)CC(=O)c2c(oc3c(Cl)cc(NS(=O)(=O)c4ccc(Br)cc4)cc23)C1` it was inactive: -15%; in that of `COc1ccc(C(=O)COC(=O)CCCC(=O)Nc2cc(C(F)(F)F)ccc2Cl)cc1`, inactive: 0.694%; in that of `COC(=O)c1cc(Cl)ccc1NC(=O)CSc1ncc(S(=O)(=O)c2ccc(Br)cc2)c(=O)[nH]1`, inactive: 4.41%.
Same read-out and setting: the result for `O=C(Nc1ccc(Br)cc1F)N1CCC(CN2CCc3ccccc3C2)CC1` reads inactive: -0.162%; that for `COc1ccc(OCC(=O)OCc2cc(=O)n3nc(C4CC4)sc3n2)cc1`, inactive: -0.989%.
`Cc1ccc(Nc2c(-c3ccc(C)s3)nc3ncccn23)cc1`: the “activity change, negative = inhibition” value was inactive: -2.14%.
On the same count and under the same terms, the result for `CCOC(=O)c1c(NC(=O)/C=C/c2ccc(C)cc2)sc2c1CCCC2` reads inactive: 2.63%.
Same read-out and setting: the result for `CCCCOC(=O)c1ccc(NC(=O)c2cc(-c3cccs3)on2)cc1` reads inactive: -10.2%; that for `Cc1ccc(CNC(=O)CCCc2nnc3n(C)c(=O)c4sccc4n23)cc1`, inactive: 3.29%; that for `O=C(NCCc1ccc(Cl)cc1)c1cc(-c2ccc(Cl)cc2)n[nH]1`, inactive: 1.88%.
The same measure, in the same setting: in the case of `COc1ccccc1CNC(=O)c1ccc(-c2nc(CS(=O)(=O)c3ccc(C)cc3)c(C)o2)cc1` it was inactive: -6.34%; in that of `CCC(C)NC(=O)c1ccc2nc(CCc3ccccc3)oc2c1` (stereo not drawn), inactive: -3.52%; in that of `Cc1ccc(NC(=O)C(=O)NCC(c2ccc3c(c2)OCO3)N2CCOCC2)cc1C` (stereo not drawn), inactive: -5.63%.
On to `CCOc1ccc(NC(=O)CCCc2nnc3n(C)c(=O)c4sccc4n23)cc1`, for which the “activity change, negative = inhibition” value was inactive: -2.36%.
Still for that read-out and setting: the result for `CC1=C(C(=O)Nc2ccccc2)C(c2cccc(Cl)c2)n2nc(SCC(=O)c3ccc(C)cc3)nc2N1` (stereo not drawn) reads inactive: -8.8%; that for `O=C(CSc1nc(-c2ccccc2)nc2c1Cc1ccccc1O2)N1CCCCC1`, inactive: -16.4%; that for `O=c1[nH]c2ccc(NCc3ccc(-c4ccccc4)o3)cc2[nH]1`, inactive: -12.2%.
The same measure, in the same setting: in the case of `Cc1cccc(OCC(=O)Nc2ccccc2C(=O)OCc2cc(=O)n3nc(C)sc3n2)c1` it was inactive: 12.4%; in that of `O=C(Nc1ccc2oc(-c3ccc4ccccc4c3)nc2c1)c1ccc(Cl)c(Cl)c1`, inactive: -10.6%; in that of `CCOc1ccccc1Nc1sc(C(=O)c2ccccc2)c(N)c1S(=O)(=O)c1ccc(C)cc1`, inactive: 4.78%.
The same measure, in the same setting: the result for `Cc1ccc(CCNC(=O)c2cc3c(-c4ccccc4F)nn(C)c3s2)cc1` reads inactive: -0.656%; that for `CCOc1ccc(-c2oc3ccc(C)cc3c(=O)c2O)cc1`, inactive: 7.59%.
On to `Fc1ccc(Nc2ncnc3c2nc2n3CCCCC2)c(F)c1`, for which the “activity change, negative = inhibition” value was inactive: 0.77%.
Take `COCCCNC(=O)c1ccc2c(c1)nc(C)n2-c1cccc(C)c1`: the “activity change, negative = inhibition” value is inactive: -12.5%.
Same read-out and setting: in the case of `O=C(Nc1ccc(C(=O)OCc2cc(=O)n3nc(C4CC4)sc3n2)cc1)c1cccc(F)c1` it was inactive: 1.81%; in that of `CCN(c1ccccc1)S(=O)(=O)c1ccc(NC(=O)c2cc(=O)c3ccccc3o2)cc1`, inactive: 4.54%; in that of `O=C(Nc1ccc(F)cc1)C1CCN(S(=O)(=O)c2ccc3c(c2)CCCN3C(=O)C2CCC2)CC1`, inactive: -4.55%.
For the compound `COc1ccc2c(CNC3CCCCCC3)c(C(=O)O)n(Cc3ccccc3F)c2c1`, the “activity change, negative = inhibition” value was inactive: -2.9%.
The same measure, in the same setting: in the case of `CCOC(=O)c1c(S(=O)(=O)N2CCC(C(=O)Nc3ncccc3C)CC2)c(C)n(C)c1C` it was inactive: -6.26%.
The same measure, in the same setting: the result for `CCOC(=O)c1cc(-c2ccc(OC)cc2)n(CCC(=O)NC2CCCCC2)c1C` reads inactive: -6.24%; that for `Cc1c(C(=O)OC2CCCCC2)[nH]c2c1C(=O)CC(c1ccc(C(C)(C)C)cc1)C2` (stereo not drawn), inactive: -23.5%.
On the same count and under the same terms, the result for `CCC(=O)N1CCc2cc(Br)cc(S(=O)(=O)CCC(=O)N3CCN(c4cc(C)ccc4C)CC3)c21` reads inactive: -0.537%.
In the case of `CCCc1nnc(NC(=O)c2cc(=O)c3cc(C)c(C)cc3o2)s1`, the “activity change, negative = inhibition” value is inactive: -4.94%.
On the same count and under the same terms, the result for `CCN(CC)S(=O)(=O)c1ccc2c(c1)nc(CN(C)C(=O)Nc1ccc(C)c(F)c1)n2C` reads inactive: 11.6%; that for `O=C(OCC1CCCO1)c1ccc2c(c1)N(Cc1ccccc1)C(=O)c1ccccc1S2(=O)=O` (stereo not drawn), inactive: 0.942%; that for `CCc1ccccc1NC(=O)CN1C(=O)CCSc2ccc(S(=O)(=O)N3CCCC3)cc21`, inactive: -4.06%.
The same measure, in the same setting: the result for `CCOC(=O)C1CCCN(C(=O)Cn2ncc3c4ccccc4n(Cc4ccccc4)c3c2=O)C1` (stereo not drawn) reads inactive: -6.33%.
On the same count and under the same terms, the result for `COC(=O)c1ccc(CSc2nc3c([nH]c4ccccc43)c(=O)n2-c2cccc(Cl)c2)o1` reads inactive: -2.45%.
Consider `CCc1ccccc1NC(=O)C(C)n1c(=O)cc(C)c2c(C)nn(-c3ccccc3)c21` (stereo not drawn), for which the “activity change, negative = inhibition” value was inactive: 0%.
Still for that read-out and setting: in the case of `COc1ccccc1NC(=O)c1cc2c(C)nn(-c3ccccc3)c2s1` it was inactive: -4.57%; in that of `COc1ccc(N2CCN(C(=O)COCc3cc(-c4ccc5c(c4)OCO5)on3)CC2)cc1`, inactive: -8.82%; in that of `COc1ccc(NC(=O)c2sc3nc(C(F)(F)F)cc(C)c3c2N)cc1OC`, inactive: -0.59%.
Still for that read-out and setting: in the case of `Cc1ccc(NC(=O)c2nc(S(C)(=O)=O)ncc2N(Cc2ccco2)Cc2cccs2)cc1C` it was inactive: -1.81%; in that of `Cc1cc(C)cc(Oc2nc3ccccn3c(=O)c2/C=C(\C#N)c2nc3ccccc3s2)c1`, inactive: -4.74%.
In the case of `O=C(NC1CCN(Cc2ccccc2)CC1)c1ccc(Cn2c(=O)c3ccccc3n(Cc3ccc(F)cc3)c2=O)cc1`, the Potency was active: 3.29 µM.

The values are drawn from PubChem BioAssay AID493208 (National Center for Advancing Translational Sciences (NCATS), 2011).
